For assay [1], the system named is PI3 virus. Kind of assay: Inactivation of PI3 virus, infectiousness titration. It is filed as cell-based, Bovine parainfluenza 3 virus.
The test system of assay [2] is BPV. Description: Inactivation of BPV, infectiousness titration. It is filed as cell-based, Bovine parvovirus. As to conditions: for Inactivation of the naked virus BPV, in words: Table 3, 37° C.
Assay [3] deals with PPV. Description: Inactivation of PPV, infectiousness titration. The format is cell-based, Porcine parvovirus. As to conditions: Acriflavine 0.001 mg/ml, 37° C.
Assay [4] relates to BVDV. Description: Inactivation of BVDV, infectiousness titration. As to conditions: 37° C. The format is cell-based, Bovine viral diarrhoea virus.
The subject of assay [5] is CPV. Kind of assay: Inactivation of CPV in protein solutions, infectiousness titration. The format is cell-based, Canine parvovirus. The conditions noted are these: Acriflavine 0.001 mg/ml, 37° C.
Assay [6] concerns cryoprotein solution after Al(OH)3 + QAE treatment. Description: Clotting activity of cryoprotein solution after virus inactivation. It is filed as biochemical. The conditions noted are these: 3 hours 45° C.
Assay [7] relates to Reo 3. Description: Inactivation of Reo 3 in protein solution, infectiousness titration. It is filed as cell-based, Reovirus type 3. The conditions noted are these: Beriate + Reo 3, Ethacridine lactate 0.3 mg/ml, 45° C.
In assay [8] the test system is IBRV. Description: Inactivation of IBRV, infectiousness titration. It is filed as cell-based, Infectious bovine rhinotracheitis virus. The conditions noted are these: BACI 0.01 mg/ml, 37° C., 2 hours, EME medium.
Where [9] appears, read: BPV, Acriflavine 0.001 mg/ml, 37° C., 2 hours, EME medium.
The mark [10] stands for this setting: Beriate + BPV, Acriflavine 0.001 mg/ml, 37° C., 0 h.
Where [11] appears, read: Beriate + BPV, Acriflavine 0.001 mg/ml, 37° C., 1 h.
[12] abbreviates: Beriate + BPV, Acriflavine 0.001 mg/ml, 37° C., 2 h.
[13] abbreviates: BVDV, Acriflavine 0.001 mg/ml, 2 hours, EME medium.
The mark [14] stands for this setting: PI3V, BACI 0.01 mg/ml, 37° C., 2 hours, EME medium.

The results in this text go back to US6831086B1, “Process for the inactivation of viruses with the aid of acridine derivatives” (ZLB Behring GmbH, priority 1994, dated 2004).

On to “3,6-diamino-10-methylacridinium, chloride and 3,6-acridineidiamine [Acriflavine]”, for which the Virus titer found in assay [1] (PI3V, Acriflavine 0.001 mg/ml, 37° C., 2 hours, EME medium) is given as 3.2 log10/ml; in assay [2] (setting [9]), “≦1.5 log10/ml”; in assay [4] (setting [13]), 2.5 log10/ml. In addition, the Virus inactivation result is “≧3.9 log10/ml” in assay [2] (setting [9]) and 3.7 log10/ml in assay [4] (setting [13]). Besides, the Titer reduction is 0 log10/ml in assay [2] (setting [10]); “≧3.5 log10/ml” in assay [2] (setting [11]); “≧3.5 log10/ml” in assay [2] (setting [12]); 0 log10/ml in assay [3] (Beriplex + PPV, 0 h); 2.6 log10/ml in assay [3] (Beriplex + PPV, 1 h); “≧3.1 log10/ml” in assay [3] (Beriplex + PPV, 2 h). The Titer reduction was 0 log10/ml in assay [3] (Haemate + PPV, 0 h); 2.2 log10/ml in assay [3] (Haemate + PPV, 1 h); 3.6 log10/ml in assay [3] (Haemate + PPV, 2 h); 0 log10/ml in assay [3] (Venimmun + PPV, 0 h); “≧2.4 log10/ml” in assay [3] (Venimmun + PPV, 1 h); “≧2.4 log10/ml” in assay [3] (Venimmun + PPV, 2 h). Besides, the Titer reduction in assay [4] (Beriate + BVDV, Acriflavine 0.001 mg/ml, 0 h) is listed as 0 log10/ml; in assay [4] (Beriate + BVDV, Acriflavine 0.001 mg/ml, 1 h), “≧3.5 log10/ml”; in assay [4] (Beriate + BVDV, Acriflavine 0.001 mg/ml, 2 h) it was “≧3.5 log10/ml”; in assay [4] (Horse serum + BVDV, Acriflavine 0.001 mg/ml, 0 h) it was 0 log10/ml; in assay [4] (Horse serum + BVDV, Acriflavine 0.001 mg/ml, 1 h), “≧3.6 log10/ml”; in assay [4] (Horse serum + BVDV, Acriflavine 0.001 mg/ml, 2 h), “≧3.5 log10/ml”. Also, the Titer reduction was found to be 0 log10/ml in assay [4] (Venimmun + BVDV, Acriflavine 0.001 mg/ml, 0 h); 1.3 log10/ml in assay [4] (Venimmun + BVDV, Acriflavine 0.001 mg/ml, 1 h); 4.4 log10/ml in assay [4] (Venimmun + BVDV, Acriflavine 0.001 mg/ml, 2 h); 0 log10/ml in assay [5] (FCS + CPV, 0 h); 1.7 log10/ml in assay [5] (FCS + CPV, 1 h); 2.6 log10/ml in assay [5] (FCS + CPV, 2 h). Also, the Titer reduction in assay [5] (Venimmun + CPV, 0 h) amounted to 0.5 log10/ml; in assay [5] (Venimmun + CPV, 1 h), 2.0 log10/ml; in assay [5] (Venimmun + CPV, 2 h), 2.9 log10/ml. Besides, the Treatment titer is on record as 5.4 log10/ml in assay [2] (setting [10]); “≦1.5 log10/ml” in assay [2] (setting [11]); “≦1.5 log10/ml” in assay [2] (setting [12]); 5.4 log10/ml in assay [2] (Horse serum + BPV, Acriflavine 0.001 mg/ml, 37° C., 0 h); “≦1.5 log10/ml” in assay [2] (Horse serum + BPV, Acriflavine 0.001 mg/ml, 37° C., 1 h); “≦1.5 log10/ml” in assay [2] (Horse serum + BPV, Acriflavine 0.001 mg/ml, 37° C., 2 h). Moreover, the “Inactivation of the naked virus BPV, in words” value in assay [2] (2 hours) is “inactivated”. For the same molecule, the “Activity (clotting activity)” value in assay [6] (A 0.001 mg/ml) worked out at 4.4 IU/ml; in assay [6] (A 0.01 mg/ml), 3.9 IU/ml; in assay [6] (A 0.03 mg/ml), 4.2 IU/ml.
Regarding `CCOc1ccc2nc3cc(N)ccc3c(N)c2c1` [Ethacridine lactate], the Titer reduction in assay [7] (0 h) is given as 0.3 log10/ml; in assay [7] (1 h) it was “≧3.2 log10/ml”; in assay [7] (2 h), “≧3.2 log10/ml”. The Treatment titer is given as 5.1 log10/ml in assay [7] (0 h), “≦1.5 log10/ml” in assay [7] (1 h) and “≦1.5 log10/ml” in assay [7] (2 h).
Regarding Benzalkonium chloride [BACI], the Virus titer found in assay [1] (BACI 0.0125 mg/ml, 0-0.03 h, 37° C., EME medium) is 6.9 log10/ml; in assay [1] (BACI 0.0125 mg/ml, 1 h, 37° C., EME medium), 5.5 log10/ml; in assay [1] (BACI 0.025 mg/ml, 0-0.03 h, 37° C., EME medium), 6.0 log10/ml; in assay [1] (BACI 0.025 mg/ml, 1 h, 37° C., EME medium), “≦1.5 log10/ml”; in assay [1] (BACI 0.05 mg/ml, 1 h, 37° C., EME medium) it was “≦1.5 log10/ml”; in assay [1] (BACI 0.1 mg/ml, 0-0.03 h, 37° C., EME medium), “≦1.5 log10/ml”. Moreover, the Virus titer found entry is given as “≦1.5 log10/ml” in assay [1] (BACI 0.1 mg/ml, 1 h, 37° C., EME medium); “≦1.5 log10/ml” in assay [1] (setting [14]); “≦1.5 log10/ml” in assay [8]; 2.3 log10/ml in assay [4] (BVDV, BACI 0.01 mg/ml, 2 hours, EME medium). Moreover, the Virus inactivation result in assay [1] (setting [14]) is on record as “≧4.1 log10/ml”; in assay [2] (BPV, BACI 0.01 mg/ml, 37° C., 2 hours, EME medium) it was 0 log10/ml; in assay [8], “≧3.6 log10/ml”. The “Inactivation of PI3V, in words” value in assay [1] (Table 3, 37° C., 2 hours) was “inactivated”. Moreover, the “Inactivation of the naked virus BPV, in words” value in assay [2] (2 hours) is on record as “not”. Besides, the “Activity (clotting activity)” value in assay [6] (BACI 0.05 mg/ml) is reported as 6.1 IU/ml; in assay [6] (BACI 0.1 mg/ml) it was 6.9 IU/ml.
